Measurements from PubChem BioAssay AID1347165 (National Center for Advancing Translational Sciences (NCATS), 2019).
The whole screen tested about 220,000 compounds, of which about 5,700 (2.6%) were called active. This list was built around the results that the source calls inconclusive (neither active nor inactive); the mix of calls is not that of the screen. Calls come from the whole dose curve; as a rule, active = well fitted inhibition curve with a large enough effect; inconclusive = small, poorly fitted or top-dose-only effect; inactive = no such curve, though single readings can be large or run the other way. Where the call is inconclusive, the potency comes from a doubtful curve fit.

target: Lysine-specific demethylase 5B (Homo sapiens) (UniProt Q9UGL1); test: Primary screen for KDM5B Histone Demethylases FDH-coupled qHTS; conditions: FDH-coupled NADH fluorescence (FDH is formaldehyde dehydrogenase); activity change, negative = inhibition: at 57.7 µM (top of the series) unless noted; note: nearly all actives have a fitted effect of over 70% in size; for activity change, negative = inhibition: 0% is about no effect
UniProt Q9UGL1, sequence (Q9UGL1 whole entry, looked up): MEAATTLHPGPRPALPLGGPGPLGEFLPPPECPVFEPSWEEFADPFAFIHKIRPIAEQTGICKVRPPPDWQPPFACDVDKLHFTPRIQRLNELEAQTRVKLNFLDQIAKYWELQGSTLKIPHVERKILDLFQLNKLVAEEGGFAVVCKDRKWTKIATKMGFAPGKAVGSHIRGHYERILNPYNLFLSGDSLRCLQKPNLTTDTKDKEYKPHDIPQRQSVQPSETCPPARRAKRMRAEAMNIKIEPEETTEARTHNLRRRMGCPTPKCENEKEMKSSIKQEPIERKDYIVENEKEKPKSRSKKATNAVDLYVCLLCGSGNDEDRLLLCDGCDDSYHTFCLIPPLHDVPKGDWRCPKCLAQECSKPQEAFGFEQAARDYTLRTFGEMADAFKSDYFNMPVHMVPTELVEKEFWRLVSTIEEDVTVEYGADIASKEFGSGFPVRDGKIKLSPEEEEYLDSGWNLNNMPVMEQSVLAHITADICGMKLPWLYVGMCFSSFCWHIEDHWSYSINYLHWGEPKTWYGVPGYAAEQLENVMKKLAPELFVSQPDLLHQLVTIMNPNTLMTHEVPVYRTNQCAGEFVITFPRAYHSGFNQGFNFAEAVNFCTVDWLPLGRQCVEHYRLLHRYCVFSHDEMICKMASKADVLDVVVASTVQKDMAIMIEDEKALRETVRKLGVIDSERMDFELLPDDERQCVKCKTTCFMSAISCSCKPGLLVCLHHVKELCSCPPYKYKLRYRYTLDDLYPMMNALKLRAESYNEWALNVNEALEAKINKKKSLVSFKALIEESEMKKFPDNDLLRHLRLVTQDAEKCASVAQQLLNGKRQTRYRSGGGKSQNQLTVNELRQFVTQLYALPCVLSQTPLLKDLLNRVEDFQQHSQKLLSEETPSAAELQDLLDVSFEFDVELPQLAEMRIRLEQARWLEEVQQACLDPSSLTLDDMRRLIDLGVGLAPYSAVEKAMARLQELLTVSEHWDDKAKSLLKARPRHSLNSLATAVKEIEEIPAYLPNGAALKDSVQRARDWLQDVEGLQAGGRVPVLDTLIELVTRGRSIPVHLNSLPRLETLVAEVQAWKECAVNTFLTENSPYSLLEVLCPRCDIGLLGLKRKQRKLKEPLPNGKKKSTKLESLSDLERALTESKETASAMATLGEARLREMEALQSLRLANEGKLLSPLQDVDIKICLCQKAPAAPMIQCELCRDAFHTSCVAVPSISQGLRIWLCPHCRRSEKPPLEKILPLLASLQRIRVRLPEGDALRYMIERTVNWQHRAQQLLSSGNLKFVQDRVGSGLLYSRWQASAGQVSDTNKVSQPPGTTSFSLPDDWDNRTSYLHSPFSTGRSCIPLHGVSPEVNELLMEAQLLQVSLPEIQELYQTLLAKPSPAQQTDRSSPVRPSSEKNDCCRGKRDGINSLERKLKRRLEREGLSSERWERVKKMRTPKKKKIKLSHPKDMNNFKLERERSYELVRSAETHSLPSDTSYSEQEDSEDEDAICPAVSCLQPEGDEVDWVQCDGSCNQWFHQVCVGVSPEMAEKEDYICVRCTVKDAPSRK
In short: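 Here, H3K4me3 peptide (12.5 µM in substrate mix) is demethylated by KDM5BΔAP, 200 nM final, after 10 min compound exposure. Formaldehyde product is coupled through FDH (0.25 U/mL in mix) to NADH fluorescence; 30-min ΔRFU feeds dose-response curves.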
Potency is the fitted concentration of half-maximal effect; tags give direction and shape of the fitted curve.

SMILES | activity change, negative = inhibition | Potency
CC(=O)Nc1ccc(CC(=O)N2CCC(C)(c3noc(C)n3)CC2)cc1 | inactive: -0.269% | –
CN(CC(=O)Nc1cccc(F)c1)C(=O)c1cn(-c2ccccc2)nc1-c1cccs1 | – | inconclusive: 39.8 µM [inhibitor, single point]
Cc1cc(C)c(S(=O)(=O)N2CCCC2c2nc3ccccc3[nH]2)c(C)c1 (stereo not drawn) | inactive: 2.79% | –
Cc1ccc(C(C(=O)N2CCC(Cc3noc(C)n3)CC2)N(C)C)cc1 (stereo not drawn) | inactive: -28.2% | –
C=C(C)COc1cc(Cl)ccc1C(N)=O | inactive: 17.5% | –
NCCCS(N)(=O)=O | inactive: -2.55% | –
COc1ccc(/C=C/c2nc(C#N)c(N3CCC(C(N)=O)CC3)o2)cc1OC | – | inconclusive: 35.5 µM [inhibitor, partial curve, poor fit]
Cc1cccc(-n2nc(-c3c(C)nc4scc(CC(=O)NCCC(C)C)n4c3=O)cc2C)c1C | – | inconclusive: 28.2 µM [inhibitor, partial curve, poor fit]
CC1(C(=O)NCc2cccnc2)CCc2cnc(NCc3ccccc3)nc21 (stereo not drawn) | – | active: 31.6 µM
S=c1[nH]nc(-c2cc(-c3ccccc3)n[nH]2)n1/N=C/c1ccc(Cl)c(Cl)c1 | – | inconclusive: 39.8 µM [inhibitor, partial curve, poor fit]
CCOCCCNc1ncnc2c1CN(C1CCCNC1)C(=O)CN2C (stereo not drawn) | – | inconclusive: 56.2 µM [inhibitor, partial curve, poor fit]
O=C(NCCc1ccccc1)c1ccc(CSc2nc3cccnc3n2Cc2ccccc2)cc1 | – | inconclusive: 35.5 µM [inhibitor, partial curve, poor fit]
COc1cc(/C=N/OCCOc2ccc(C)cc2)cc(Cl)c1OC | inactive: 30.9% | –
Cc1cc2nc(-c3ccc(NC(=O)c4ccc(OCC(C)C)cc4)cc3)oc2cc1C | – | inconclusive: 5.01 µM [inhibitor, partial curve, poor fit]
CC(=O)NC1(C)CCN(Cc2ccccc2-c2ccccc2Oc2ccccc2)C1 (stereo not drawn) | – | inconclusive: 35.5 µM [inhibitor, single point]
CCCC(=O)NCC(=O)N(CCN(C)C)Cc1ccc(Cl)cc1 | inactive: 17.4% | –
COc1ccc(-c2noc([C@@H](C)NC(=O)c3cc(C)oc3C)c2C(=O)O)cc1 | – | inconclusive: 31.6 µM [inhibitor, partial curve]
COc1ccc(Cl)cc1-n1c2c(cc(C#N)c1=O)C(=O)CC(C)(C)C2 | inactive: -4.66% | –
Cc1ccc(-c2nc(CC(=O)NCCc3ccccc3F)cs2)o1 | – | inconclusive: 28.2 µM [inhibitor, single point]
CCN1CCN(CCNC(=O)c2ccc3nc(-c4ccccc4)c(-c4ccccc4)nc3c2)CC1 | – | inconclusive: 25.1 µM [inhibitor, partial curve, poor fit]
CCOC(=O)C1CCN(c2cc3c(cc2NC(=O)c2ccccc2Cl)n(C)c(=O)n3C)CC1 | – | inconclusive: 31.6 µM [inhibitor, partial curve, poor fit]
O=C(O)CCc1ccc(-c2ccc(Br)cc2)n1-c1ccccc1O | – | inconclusive: 15.8 µM [inhibitor, partial curve, poor fit]

SMILES | activity change, negative = inhibition | Potency
CCOCCCNC(=O)c1ccc(-c2nc(CS(=O)(=O)c3ccccc3)c(C)o2)cc1 | – | inconclusive: 31.6 µM [inhibitor, partial curve, poor fit]
CNC(=O)C1CCCN(c2nnc(C)c3c(C)n(-c4ccccc4)nc23)C1 (stereo not drawn) | – | inconclusive: 25.1 µM [inhibitor, single point]
Cc1ccc(N2Cc3c(NCCc4ccc(F)cc4)ncnc3N(C)CC2=O)cc1 | inactive: -27.3% | –
COc1ccc2c(c1)c1c(c(=O)n(Cc3ccccc3)c(=O)n1CC(=O)Nc1ccccc1F)n2C | – | inconclusive: 15.8 µM [inhibitor, partial curve, poor fit]
CCOC(=O)c1cnc(NCc2ccc(OC)cc2OC)c2ccccc12 | – | inconclusive: 28.2 µM [inhibitor, partial curve, poor fit]
Cc1ccc(OC(=O)CSc2nnc(-c3ccc4c(c3)OCO4)o2)c(C)c1 | – | inconclusive: 31.6 µM [inhibitor, partial curve, poor fit]
COc1ccc(-c2cc(N3CCC(NC(=O)Cc4ccccc4C)CC3)n[nH]2)cc1 | – | inconclusive: 35.5 µM [inhibitor, partial curve, poor fit]
O=C(OCc1cccc(COC(=O)c2ccc(OCC3CCCO3)cc2)c1)c1ccc(OCC2CCCO2)cc1 (stereo not drawn) | inactive: 26.1% | –
COc1ccc(-c2noc([C@@H](C)NS(=O)(=O)CC(C)C)c2C(=O)O)cc1 | – | inconclusive: 25.1 µM [inhibitor, partial curve, poor fit]
CCCCN1CCN(c2nc3c(c(=O)[nH]c(=O)n3C)n2Cc2ccccc2)CC1 | inactive: 13.9% | –
Cc1noc(C)c1-c1cnc(NC(=O)c2ccc(Cl)cc2)c2c1CCO2 | inactive: -20.2% [at 86.2 µM] | –
COc1ccc(N2CCCCS2(=O)=O)cc1S(=O)(=O)Nc1ccc(Cl)cc1 | inactive: 4.27% | –
Cc1ccc(C(=O)c2sc(Nc3ccc(F)cc3)c(C#N)c2N)cc1 | – | inconclusive: 31.6 µM [inhibitor, partial curve, poor fit]
Cc1nnc(-c2cc(NCc3cccs3)ccn2)n1C1CCCCC1 | inactive: -12.1% [at 86.2 µM] | –
CCN(c1ccc(OC)cc1)S(=O)(=O)c1cc(-c2cc(C)no2)ccc1C | inactive: -5.55% | –
CN1CCN(CCC2(c3ccccc3)CCOC(C)(C)C2)CC1 (stereo not drawn) | – | inconclusive: 35.5 µM [inhibitor, partial curve, poor fit]
CN(C)C(=O)c1ccnc(-c2nnc3ccc(NCCN4CCOCC4)nn23)c1 | – | active: 35.5 µM
Cn1c(=O)c2c(-c3ccc(F)cc3)[nH]cc2n(C)c1=O | – | inconclusive: 39.8 µM [inhibitor, single point]
O=C(CNS(=O)(=O)c1ccc(Br)s1)N1CCN(c2ccc(F)cc2)CC1 | – | inconclusive: 15.8 µM [inhibitor, single point]
COCCNS(=O)(=O)c1cc(-c2nn3c(C)nnc3c3ccccc23)ccc1C | – | inconclusive: 31.6 µM [inhibitor, partial curve, poor fit]
O=C(COc1cccc(-n2cnnc2)c1)NC1CCCc2c1[nH]c1ccccc21 (stereo not drawn) | – | inconclusive: 22.4 µM [inhibitor, single point]
